Experimental data: PubChem BioAssay AID1347073 (National Center for Advancing Translational Sciences (NCATS), 2019)
About 200 (0.44%) of roughly 45,000 compounds were called active. About 7% were inconclusive and are not listed. Calls follow the shape of the dose curve; as a rule, active = well fitted activation curve with a large enough effect; inconclusive = small, poorly fitted or top-dose-only effect; inactive = no such curve, though single readings can be large or run the other way. Some of the results follow.

Test: qHTS of TDP-43 Inhibitors: NCGC Sytravon Library Screen; also: 0% is about no effect; nearly all actives have a fitted effect of over 55% in size
Conditions: yeast TDP-43 toxicity rescue, BacTiter-Glo growth, 24 h; series mostly up to 46.1 µM; growth rescue (activation): at the top concentration
In short: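 TDP-43-expressing yeast, pregrown in raffinose, seeded at OD600 0.02 in galactose medium with compound for 24 hr at 30 deg C. Growth read by BacTiter-Glo luminescence, so rescue of toxicity appears as activation.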

SMILES	growth rescue (activation)
Cc1ccc(C(=O)NNC(=O)c2n[nH]c(=O)c3ccccc23)cc1C	inactive: -13.6%
CCn1ncc(Br)c1C(=O)Nc1ccc(C(C)C)cc1	inactive: 24.4%
CCOc1ccccc1N1CCN(CC(O)COC2CCCc3ccccc32)CC1 (configuration not stated)	inactive: -6.32%
O=C(N/C(=C/c1cccs1)C(=O)N1CCOCC1)c1ccco1	inactive: -28.1%
CC(C)C(=O)N=C1SC2CS(=O)(=O)CC2N1Cc1ccc(Cl)cc1 (configuration not stated)	inactive: 5.32%
CCOc1ccc(Cl)cc1S(=O)(=O)N1CCC(C(=O)NCc2ccco2)CC1	inactive: 12%
CC1(C(=O)NCc2ccccc2)Cc2c(-c3ccc(C(N)=O)cc3)ccnc2O1 (configuration not stated)	inactive: -3.93%
COc1ccc(CN(Cc2ccc(C(=O)O)cc2)C(=S)Nc2ccccc2C)cc1OC	inactive: 3.97%
CCCCn1c(N)c(NCCC)c(=O)[nH]c1=O	inactive: 10.6%
CCn1c(CC(=O)Nc2ccc(Cl)c(Cl)c2)nnc1SCc1ccc(C)cc1	inactive: 14.2%
Cc1ccc(F)c(CNC(=O)C2(C)CCCN2C(=O)C(C)C)c1F (configuration not stated)	inactive: 1.48%
COc1ccc(CNC(=O)CN(Cc2ccccc2)C(=O)CCC(=O)Nc2ccccn2)cc1	inactive: -1.07%
CC1(C)N=C(N)N=C(N)N1c1ccc(Oc2ccc(Cl)cc2)c(Cl)c1	inactive: -6.66%
CN1CCN(C(=O)CCc2nc3ccccc3c(=O)[nH]2)CC1	inactive: 23.5%
CCN(CC)S(=O)(=O)c1cc(C(=O)Nc2cc(C)on2)ccc1Cl	inactive: 0.594%
CCn1cc(C(=O)OCC(=O)Nc2cccc(C)c2)c(=O)c2ccc(C)nc21	inactive: 36.2%
O=C(NCC1CCCC(CNC(=O)Nc2ccc(Cl)cn2)C1)Nc1ccc(Cl)cn1 (configuration not stated)	inactive: 20.7%
Cn1c(=O)c([N+](=O)[O-])c(NCc2ccc3c(c2)OCO3)c2ccccc21	inactive: -3.01%
CC(C)(C)NC(=O)C(=O)NNC(=O)COc1ccccc1	inactive: 24.2%
O=C(N/C(=C\c1ccc([N+](=O)[O-])cc1)C(=O)N1CCOCC1)c1ccco1	inactive: 7.18%
Cc1c(C(=O)Nc2nonc2-c2ccc(F)cc2)oc2ccc(F)cc12	inactive: -6.81%
O=c1[nH]cnc2scc(-c3ccc(Br)cc3)c12	inactive: 4.05%
COc1cc(C)ccc1Oc1nc(-c2ccccc2O)nc2ccccc12	inactive: -22.5%

SMILES	growth rescue (activation)
CC(C)n1cc(CN2CCCC(CO)(Cc3cccc(Cl)c3)C2)cn1 (configuration not stated)	inactive: -2.02%
Cn1c(=O)c(C(=O)CN2CCN(S(=O)(=O)c3ccccc3)CC2)c(N)n(Cc2ccccc2)c1=O	inactive: 6.98%
CCC(C)C(NC(=O)c1ccc(Cl)cc1)C(=O)Nc1cccnc1 (configuration not stated)	inactive: -2.8%
CN(C)CCCNC(=O)c1cc(C(=O)Cc2ccccc2)c[nH]1	inactive: -3.33%
COc1ccc(S(=O)(=O)N(C)CC(=O)Nc2ccccc2C(F)(F)F)cc1OC	inactive: 7.37%
Oc1ccc(C=Nc2cccc3ccccc23)c(O)c1	inactive: 9.08%
CCCCn1nnc(NC(=O)c2ccco2)n1	inactive: -33%
CN(C)S(=O)(=O)c1cc(NC(=O)COC(=O)CC2Sc3ccccc3NC2=O)ccc1Cl (configuration not stated)	inactive: 12.5%
CCCn1nnnc1NCc1ccccc1OCC	inactive: -12.4%
CCc1ccc(Nc2nnc(SC(C)C(=O)NC3CC3)s2)cc1 (configuration not stated)	inactive: 15.3%
COc1cccc(/C=C/C(=O)NCCc2ccc3c(c2)OCCO3)c1	inactive: 6.73%
C/C(CC(=O)NC(C)C)=N\NC(=O)C(c1ccccc1)c1ccccc1	inactive: 2.36%
COc1cc(CCC(=O)OCC(=O)Nc2ccc(F)c(F)c2)cc(OC)c1OC	inactive: -19%
O=C(Oc1ccc(C(=S)N2CCOCC2)cc1)c1cc([N+](=O)[O-])cc([N+](=O)[O-])c1	inactive: 13.3%
COC(=O)Cn1c(=O)c2cccn2c2cccnc21	inactive: 16%
CC(C)CCC(CCNCc1ccccn1)c1ccc(Cl)cc1 (configuration not stated)	inactive: 16.6%
Cc1ccsc1CN(C(=O)c1oc2cc(Br)ccc2c1C)C1CCS(=O)(=O)C1 (configuration not stated)	inactive: 13.6%
O=C(CSc1nnc(NC(=O)c2ccccc2F)s1)NC1CCCC1	inactive: 18.5%
COc1ccc(C)cc1N(C(=O)c1snc(C(N)=O)c1N)C(C(=O)NC1CCCCC1)c1ccc(C)o1 (configuration not stated)	inactive: 9.51%
O=C(NCc1cccs1)c1ccc2sc([C@@H]3O[C@H](CO)[C@H](O)[C@H](O)[C@H]3O)nc2c1	inactive: 6.49%
COc1cc(CNC(=O)Nc2cccn3nc(COCCO)nc23)cc(OC)c1OC	inactive: -5.51%
CCOc1ccc(/C(C)=N/N2C(=O)C(CC(=O)Nc3ccc(OC)cc3[N+](=O)[O-])SC2=Nc2cccc(C)c2C)cc1 (configuration not stated)	inactive: 14.2%
COc1cccc(CN2CCC2(C)C(=O)Nc2cccc(NS(C)(=O)=O)c2)c1OC (configuration not stated)	inactive: -7.67%

SMILES	growth rescue (activation)
O=C(OCCN=C1NS(=O)(=O)c2ccccc21)c1ccccc1F	inactive: -0.814%
Nc1c(C(=O)Nc2ccccc2)nnn1Cc1ccc(F)cc1Cl	inactive: 0.0407%
COc1ccc(CC(=O)NCC(=O)N/N=C/c2cc(Br)ccc2OC)cc1	inactive: 9.16%
Cc1noc(C)c1C(=O)N1CCC1(C)C(=O)NS(=O)(=O)Cc1cccc(Cl)c1 (configuration not stated)	inactive: 4.02%
O=C(CC1C(=O)NCCN1CC(c1ccccc1)c1ccccc1)NCCc1cn[nH]c1 (configuration not stated)	inactive: 16.7%
CCOc1ncccc1C(=O)OCC(=O)Nc1ccc(Cl)cn1	inactive: 29.1%
CCN(CC(=O)NC1CCCC1)S(=O)(=O)c1ccc(Br)cc1	inactive: -11.7%
O=C1C2C(c3ccccc3)C=CC(c3ccccc3)C2C(=O)N1c1cccnc1 (configuration not stated)	inactive: 7.58%
Cc1cc(NC(=O)C2CC(=O)N(c3cccc(Cl)c3)C2)no1 (configuration not stated)	inactive: 4.44%
Nc1ccc(S(=O)(=O)Nc2nccc(/C=C/c3ccc(Cl)cc3Cl)n2)cc1	inactive: -19.3%
COc1ccc(/C=N/NC(=O)c2cccnc2)cc1COc1ccc(NC(C)=O)cc1	inactive: 10.4%
NC(=O)c1cc(-c2ccccc2)sc1NC(=O)CN1CCCCC1	inactive: 1.43%
COc1ccccc1C1(O)C(=O)Nc2ccccc21 (configuration not stated)	inactive: -1.26%
CCn1ccnc1CN(C)Cc1cn[nH]c1-c1ccc(F)cc1F	inactive: -7.42%
O=C(CCl)NCCN1C(=O)S/C(=C\c2cccnc2)C1=O	inactive: -13.9%
CC(=O)OC(C(=O)NC1CCCCC1)c1ccccc1F (configuration not stated)	inactive: 0.491%
CCN(CC)S(=O)(=O)c1ccc2oc(SCc3ccc(F)cc3)nc2c1	inactive: -3.52%
O=C(NC1CCCCC1)c1cccnc1Sc1ccccc1Cl	inactive: 16.9%
Clc1ccc(-c2nc(NCCCN3CCOCC3)c3ccccc3n2)cc1	inactive: 9.08%
O=C(N/N=C/c1ccc(O)c(O)c1)N/N=C/c1ccc(O)c(O)c1	inactive: -11.6%
CC(=O)Nc1ccc(N(C(=O)Cc2cccs2)C(C(=O)NC2CCCC2)c2ccncc2)cc1 (configuration not stated)	inactive: 4.14%
